{"source": "PubChem BioAssay AID1461", "about": "(National Center for Advancing Translational Sciences (NCATS), 2008)", "note": "Among all 220,000 compounds or so, about 2,300 (1%) were called active. This list was built around the results that the source calls inconclusive (neither active nor inactive); the mix of calls is not that of the screen. The call rests on the fitted dose curve; in most records, active means well fitted inhibition curve with a large enough effect; inconclusive means small, poorly fitted or top-dose-only effect, or effect the other way; inactive means no such curve, though single readings can be large or run the other way. No potency is given beside an inconclusive call; the fits are too rough.", "data": [{"molecular_target": "Neuropeptide S receptor (Homo sapiens) (UniProt Q6W5P4)", "sequence (Q6W5P4 whole entry, looked up)": "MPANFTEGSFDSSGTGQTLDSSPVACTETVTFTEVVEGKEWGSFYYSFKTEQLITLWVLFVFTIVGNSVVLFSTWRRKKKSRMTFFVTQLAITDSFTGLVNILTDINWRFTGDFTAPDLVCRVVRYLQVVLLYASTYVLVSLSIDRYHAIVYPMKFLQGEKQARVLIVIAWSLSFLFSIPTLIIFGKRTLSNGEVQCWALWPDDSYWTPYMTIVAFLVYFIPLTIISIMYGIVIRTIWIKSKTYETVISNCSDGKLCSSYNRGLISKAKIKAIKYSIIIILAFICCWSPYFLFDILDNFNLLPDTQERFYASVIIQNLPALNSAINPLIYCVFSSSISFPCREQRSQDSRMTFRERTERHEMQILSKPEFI", "test": "qHTS Assay for Antagonists of the Neuropeptide S Receptor: cAMP Signal Transduction; further: nearly all actives have a fitted effect of over 50% in size; further: potency means the concentration at half of the fitted maximal effect; tags describe the fitted curve by direction and shape; on activity change, negative = inhibition: on the % scale 0 is the no-effect control and ±100 the full control effect", "details": "CHO-NPSR cells, cAMP TR-FRET, antagonist mode; activity change, negative = inhibition: at 38.3 µM (top of the series) unless noted", "values": [{"compound": "CCC(C)NC(=O)C1c2ccccc2C(=O)N1Cc1cc(OC)ccc1OC", "note": "(stereo unspecified)", "Potency": "inconclusive [inhibitor, partial curve]"}, {"compound": "COC(=O)C1=C(C(=O)OC)SC(=C2C(=S)C(C)(C)N(C(=O)C(C)C)c3ccccc32)S1", "Potency": "active: 10 µM"}, {"compound": "CCOC(=O)c1nnn(-c2nonc2-n2cccc2)c1CN1CCC(C)CC1", "Potency": "inconclusive [inhibitor, single point]"}, {"compound": "O=C1c2ccccc2C(=O)N1c1nc2nccc(-c3ccccc3)n2n1", "Potency": "inconclusive [inhibitor, single point]"}, {"compound": "O=C(Nc1nc(-c2ccco2)cs1)c1ccccc1", "Potency": "inactive"}, {"compound": "CCCCN(CC)CCNC(=O)CN(C)S(=O)(=O)c1ccc2c(c1)c(=O)n(C)c(=O)n2C", "Potency": "inactive"}, {"compound": "CCCCC(=O)Nc1cccc(-c2nnc(-c3ccccc3)o2)c1", "Potency": "inconclusive [inhibitor, single point]"}, {"compound": "O=C(CSc1nc2c(c(C(F)(F)F)n1)CCc1ccccc1-2)NCc1ccccc1", "Potency": "inconclusive [inhibitor, single point]"}, {"compound": "CC(=O)Oc1ccc2ccccc2c1C(NC(=O)Cc1ccccc1)c1ccccc1Cl", "note": "(stereo unspecified)", "Potency": "inconclusive [inhibitor, single point]"}, {"compound": "COc1cc(CN(C(=S)NCC(=O)NC2CC2)C2CCCC2)cc(OC)c1OC", "Potency": "inactive"}, {"compound": "COc1ccc(OCC(=O)N2CCN(C(=O)COc3ccc(Br)cc3)CC2)cc1", "Potency": "inactive"}, {"compound": "Cc1ccc(SC(CC(=O)c2ccc(C(C)(C)C)cc2)C(=O)O)cc1", "note": "(stereo unspecified)", "Potency": "active: 10 µM"}, {"compound": "Nc1nc(SCc2ccc(Cl)c(Cl)c2)n[nH]1", "Potency": "inactive"}, {"compound": "Cc1ccc(NC(=O)c2nc[nH]c2C(=O)N[C@@H](C)c2ccccc2)cc1", "Potency": "inconclusive [activator, single point]"}, {"compound": "Cn1c(SCC(=O)NC2CC2)nnc1C(F)(F)F", "Potency": "inconclusive [inhibitor, single point]"}, {"compound": "CC(C)C[C@H](NC(=O)[C@@H](O)[C@H](N)Cc1ccccc1)C(=O)O", "Potency": "inconclusive [inhibitor, single point]"}, {"compound": "O=C(Cc1ccccc1)NCC(=O)OCC(=O)c1cccs1", "Potency": "inactive"}, {"compound": "O=C(CCCCCn1c(=S)[nH]c2cc3c(cc2c1=O)OCO3)N1CCN(C(=O)c2ccco2)CC1", "Potency": "inconclusive [activator, single point]"}, {"compound": "COC(=O)Cc1c[nH]c2cccc(OCC(O)CN(Cc3ccc([N+](=O)[O-])cc3)C(C)(C)C)c12", "note": "(stereo unspecified)", "Potency": "inconclusive [inhibitor, single point]"}, {"compound": "COc1ccc(S(=O)(=O)Nc2nc(C(F)(F)F)cs2)cc1", "activity change, negative = inhibition": "inactive: -8.91% [at 7.67 µM]"}, {"compound": "O=C(CN(C1CCCCC1)C1CCCCC1)N1CCc2ccccc2C1", "Potency": "inconclusive [inhibitor, partial curve]"}, {"compound": "CSc1ncccc1C(=O)OCC(=O)Nc1cc(C(F)(F)F)ccc1N1CCOCC1", "Potency": "inconclusive [inhibitor, partial curve]"}, {"compound": "Cc1cccc(N2NC(=O)/C(=C/c3ccc(-c4ccc(Cl)c(C(=O)O)c4)o3)C2=O)c1", "Potency": "inactive"}, {"compound": "COC(=O)[C@H]1[C@H]2C[C@@H]3c4[nH]c5cc(OC)ccc5c4CCN3C[C@H]2C[C@@H](OC(=O)c2cc(OC)c(OC)c(OC)c2)[C@@H]1OC", "Potency": "inconclusive [inhibitor, partial curve]"}, {"compound": "CN(C(=O)COC(=O)CCc1c[nH]c2ccccc12)C(c1ccccc1)c1ccccc1", "Potency": "inconclusive [inhibitor, single point]"}, {"compound": "Cc1nn(Cc2ccc(C(=O)NC3CCCCC3)o2)c(C)c1Br", "Potency": "inconclusive [inhibitor, partial curve]"}, {"compound": "COC(=O)c1ccc(N/N=C/c2cc([N+](=O)[O-])cc(OC)c2O)cc1", "Potency": "inactive"}, {"compound": "Cc1ccc(Cl)cc1NC(=O)c1cnn2c1NC(c1ccco1)CC2C(F)(F)F", "note": "(stereo unspecified)", "Potency": "inconclusive [inhibitor, single point]"}, {"compound": "Nc1ccc(O)c2c1C(=O)c1ccccc1C2=O", "Potency": "inactive"}, {"compound": "O=C(O)c1cccc(N/N=C/c2ccc(-c3ccccc3)cc2)c1", "Potency": "inactive"}, {"compound": "CN1CCN(C2=Cc3ccccc3Sc3cc(F)c(Cl)cc32)CC1", "Potency": "inconclusive [inhibitor, single point]"}, {"compound": "COc1ccc(C(=O)N2CC(=O)N(CCc3ccccc3)C(=O)C2)cc1OC", "Potency": "inactive"}, {"compound": "O=C(N/N=C/c1ccc([N+](=O)[O-])o1)c1ccc(O)cc1", "Potency": "active: 12.6 µM"}, {"compound": "Cn1nc(-c2ccc(Cl)cc2)nc2c(=O)n(C)c(=O)nc1-2", "Potency": "active: 1 µM"}, {"compound": "Cc1ccc(NC(=O)c2ccc(OC(=O)COc3ccc(Cl)cc3C)cc2)cc1", "Potency": "inactive"}, {"compound": "O=C(O)/C=C/c1cn(-c2ccccc2)nc1-c1ccc2c(c1)OCCO2", "Potency": "inconclusive [inhibitor, single point]"}, {"compound": "CN1C(=O)NC(c2ccc(O)cc2)C(C(=O)c2cccs2)C1(O)C(F)(F)F", "note": "(stereo unspecified)", "Potency": "inactive"}, {"compound": "Cc1ccc(S(=O)(=O)Nc2cccc3cccnc23)cc1", "Potency": "inconclusive [inhibitor, partial curve]"}, {"compound": "Cn1nc(C(=O)NCc2ccc(F)cc2)c2ccccc2c1=O", "Potency": "inactive"}, {"compound": "Cc1cc(C)cc(OCc2ccc(C(=O)NN)o2)c1", "Potency": "inactive"}, {"compound": "C=CCNCC(=O)Nc1sc2c(c1C(=O)Nc1ccc(OC)cc1OC)CCC2", "Potency": "inactive"}, {"compound": "c1ccc(-c2nc3nonc3nc2-c2ccccc2)cc1", "Potency": "inactive"}, {"compound": "CCc1ccccc1NC(=O)CC(c1ccc(OC)cc1)n1cccc1", "note": "(stereo unspecified)", "Potency": "inconclusive [activator, full curve, poor fit]"}, {"compound": "COc1ccc(/C=N/Nc2nc(-c3cccnc3)nc3ccccc23)c(OC)c1", "Potency": "inconclusive [activator, single point]"}, {"compound": "CCCOc1ccc(/C(O)=C2/C(=O)C(=O)N(CCCn3ccnc3)C2c2ccco2)cc1", "note": "(stereo unspecified)", "Potency": "inconclusive [inhibitor, single point]"}, {"compound": "CCCC1(c2ccccc2)NC(=O)N(CC(=O)c2[nH]c(C)c(C(=O)OCC)c2C)C1=O", "note": "(stereo unspecified)", "Potency": "inconclusive [inhibitor, partial curve]"}, {"compound": "O=c1c2c(nc3nc(Cc4ccccc4)[nH]n13)CCC2", "Potency": "inactive"}, {"compound": "Cc1ccc2nc(-c3ccc(NC(=O)CN4CCN(c5ccccn5)CC4)cc3)sc2c1", "Potency": "inconclusive [inhibitor, single point]"}, {"compound": "COc1ccc(-n2c(C)cc(C(=O)CSc3nnc(-c4cccs4)o3)c2C)cc1", "Potency": "inconclusive [inhibitor, single point]"}, {"compound": "Cc1cc(NC(=O)c2ccc(S(=O)(=O)N(C)C)cc2)n(-c2ccccn2)n1", "Potency": "inactive"}, {"compound": "COC(=O)c1cc(=O)n(Cc2ccco2)c(=Nc2ccc(F)c(Cl)c2)s1", "Potency": "inconclusive [inhibitor, single point]"}, {"compound": "CC(C)(C)OC(=O)NCCCC[C@H](NC(=O)c1nc[nH]c1C(=O)NCc1ccccc1)C(=O)OC(C)(C)C", "Potency": "inconclusive [activator, partial curve]"}, {"compound": "CC(=O)c1sc(NC(=O)c2ccc(F)cc2)nc1-c1ccccc1", "Potency": "inconclusive [inhibitor, single point]"}, {"compound": "CN(C#N)c1nc(Cl)nc(Nc2cccc(Cl)c2)n1", "Potency": "inactive"}, {"compound": "CCOc1ccccc1NC(=S)Nc1ncccc1C", "Potency": "inactive"}, {"compound": "Nc1c(S(=O)(=O)c2cccc(Cl)c2)c2nc3ccccc3nc2n1CCN1CCOCC1", "Potency": "inconclusive [inhibitor, partial curve]"}, {"compound": "O=C(CSc1nnc(CCc2ccccc2)n1-c1ccc(Cl)cc1)NCc1ccccc1", "Potency": "inconclusive [inhibitor, single point]"}, {"compound": "COc1ccc(-c2cc(C(=O)OCC(=O)N3CCCC3)c3ccccc3n2)cc1", "Potency": "inconclusive [inhibitor, single point]"}, {"compound": "COc1ccc2sc(/C=C/c3ccccc3O)[n+](C)c2c1", "Potency": "active: 12.6 µM"}, {"compound": "COc1ccc(-n2c(-c3ccco3)nc3c(cnn3-c3ccccc3C)c2=O)cc1", "Potency": "inconclusive [inhibitor, single point]"}, {"compound": "CCOc1ncccc1C(=O)Nc1ccccc1C(=O)NCc1ccc2c(c1)OCO2", "Potency": "inconclusive [inhibitor, partial curve, poor fit]"}, {"compound": "CCOC(=O)c1c(/N=C/C2C(=O)CC(C)(C)CC2=O)sc2c1CCCC2", "Potency": "inactive"}, {"compound": "Cc1cccc(C(=O)NC(=S)N2CCc3ccccc3C2)c1", "Potency": "inactive"}, {"compound": "O=C(C1=C(O)C(=O)N(CC2CCCO2)C1c1cccnc1)c1ccco1", "note": "(stereo unspecified)", "Potency": "inconclusive [activator, single point]"}, {"compound": "CCCc1nc(SC2CCCC2)c2c(=O)n(C)c(=O)n(C)c2n1", "Potency": "inconclusive [inhibitor, single point]"}, {"compound": "O=c1c(C(c2ccc(Cl)cc2)c2c(O)nc3n(c2=O)CCS3)c(O)nc2n1CCS2", "Potency": "inactive"}, {"compound": "Fc1ccc(-n2c(Cc3ccccc3)nnc2SCc2nc(-c3ccc(Cl)cc3)no2)cc1", "Potency": "inconclusive [inhibitor, single point]"}, {"compound": "COc1ccccc1N1CCN(C(=O)c2ccc(C(C)(C)C)cc2)CC1", "Potency": "inconclusive [inhibitor, single point]"}, {"compound": "COc1cc2nc(N3CCN(C(=O)OCc4ccccc4)C(C(=O)NC(C)(C)C)C3)nc(N)c2cc1OC", "note": "(stereo unspecified)", "Potency": "active: 12.6 µM"}, {"compound": "Cc1ccc2c(c1)c(=O)c1c3n2CCN(C(=O)CCl)C3CC1", "note": "(stereo unspecified)", "Potency": "inconclusive [inhibitor, single point]"}, {"compound": "O=C(CCn1cnc2ccccc2c1=O)Nc1nc(-c2ccc(Br)cc2)cs1", "Potency": "inconclusive [inhibitor, single point]"}]}]}
